Results on 89 compounds are retold here after PubChem BioAssay AID463173 (ICCB-Longwood Screening Facility, Harvard Medical School, 2010).

Hit rate of the full screen: of about 52,000 compounds, about 1,700 (3.3%) were called active. No stated cut-off is given here; in the data, active means survival mostly below about 52% (no sharp cut-off); inactive means mostly above about 56%. The list shows a part of the results.

For this assay, the system named is Wild type. In words: S. aureus survival, RN4220 and DeltatarO strains – OD600, teichoic acid synthesis inhibitors, primary screen (AID 463173). The note with it: S. aureus RN4220 wild type/DeltatarO growth, OD600, 18 h, active compounds read low, screened at 18.75 µg/mL (by protocol).
For `CCOC(=O)c1c(S(=O)(=O)N2CCCC(C(=O)Nc3cccc(CC)c3)C2)c(C)n(CC)c1C` (centres undefined), the survival is inactive: 135%.

Take `CCOC(=O)c1c(C)[nH]c(C)c1S(=O)(=O)NCC(=O)Nc1cccc(Cl)c1`: the survival was inactive: 72%.

With `Cc1c(NC(=O)Cc2ccc(Cl)cc2)cccc1-c1nc2cccnc2s1`, the survival is inactive: 117%.

On to `CCOc1ccc(CNC(=O)c2ccc(NC(=O)N3CCCCc4ccccc43)cc2)cc1`, for which the survival was inactive: 113%.

With `Cc1cccc(CNC(=O)Cn2nc(C)c3nn(-c4ccc(Cl)cc4)c(C)c3c2=O)c1`, the survival is inactive: 47%.

As for `Cc1c(CNC2CCCCCC2)c(C(=O)O)c(C)n1Cc1cccc(Cl)c1`, the survival was inactive: 142%.

`Cc1cc(C)cc(NC(=O)NCc2c(-n3cccc3)sc3c2CCCC3)c1`: the survival is inactive: 99%.

Take `O=C(CSc1nc(Nc2ccccc2)c2ccccc2n1)c1ccc(Cl)cc1`: the survival was inactive: 82%.

On to `Cc1ccccc1Nc1c(-c2c[nH]c3ccccc23)nc2ccc(Cl)cn12`, for which the survival is inactive: 82%.

`Clc1cccc(CNCCCSc2nnnn2-c2ccccc2)c1`: the survival is inactive: 84%.

Turning to `COC(=O)c1scc(-c2ccc(C)cc2)c1S(=O)(=O)Nc1cc(C)c(Cl)cc1OC`, the survival was inactive: 128%.

Consider `CC(=O)N1CCN(c2csc3ccc(Cl)cc3c2=O)CC1`, for which the survival is inactive: 66%.

For `Cc1ccc(NS(=O)(=O)c2ccc3c(c2)n(C)c(=O)n3C)c(C)c1`, the survival is inactive: 67%.

With `CCCCOC(=O)c1ccc(NC(=O)c2ccc3c(c2)CCN3S(C)(=O)=O)cc1`, the survival was inactive: 111%.

As for `Cc1cccc(C(c2sc3nc(-c4ccco4)nn3c2O)N2CCOCC2)c1` (centres undefined), the survival is inactive: 75%.

As to `Cc1cc(C)c(C#N)c(N2CCC(C(N)=O)CC2)n1`, the survival is inactive: 93%.

With `Cc1cccc(N2CCN(C(=O)CCS(=O)(=O)c3ccc4c(c3)CC(=O)N4C)CC2C)c1` (centres undefined), the survival is active: -4%.

Regarding `Cc1ccccc1S(=O)Cc1ccc(C(=O)NCc2ccccc2Cl)o1` (centres undefined), the survival was inactive: 71%.

`O=C(Cn1cc(C(=O)c2ccco2)c2ccccc21)Nc1ccccc1C(F)(F)F`: the survival is inactive: 98%.

`COc1ccc(-c2csc3ncnc(Nc4ccccc4)c23)cc1`: the survival was inactive: 94%.

On to `Cc1ccc(CSC2=NC(C)(C)Nc3ccccc32)c(C)c1`, for which the survival is inactive: 120%.

For the compound `Fc1cccc(CN2CCc3nc(Nc4ccc5c(c4)OCCO5)ncc3C2)c1F`, the survival is inactive: 81%.

Turning to `O=C(NCCc1cccs1)c1ccc(Cn2c(SCc3cccc(F)c3)nc3cccnc32)cc1`, the survival was inactive: 91%.

In the case of `COc1ccc(NC(=O)Cn2cc(C(=O)c3ccc(C)c(C)c3)c(=O)c3cc(OC)ccc32)cc1`, the survival was inactive: 78%.

Regarding `CCOc1ccccc1NC(=O)Cn1c(=O)oc2ccccc21`, the survival was inactive: 75%.

With `COc1ccc(-c2noc(N3CCC(C(=O)N4CCN(c5cccc(OC)c5)CC4)CC3)n2)cc1`, the survival is inactive: 69%.

As for `CCOC(=O)c1c(-c2ccccc2)oc2ccc(OCc3ccccc3Br)cc12`, the survival is inactive: 50%.

For the compound `CCOc1ccc2c(c1)c(=O)c(C(=O)c1ccc(CC)cc1)cn2CC(=O)Nc1ccc2c(c1)OCCO2`, the survival is inactive: 78%.

For the compound `COc1cc(C2C=C(C(=O)O)Nc3ncnn32)ccc1O` (centres undefined), the survival was inactive: 88%.

As for `COc1ccc(Cl)cc1NC(=O)Cn1c(=O)n2nc(-c3ccccc3)nc2c2ccccc21`, the survival is inactive: 74%.

`O=C(CSCCO)N1CCc2ccccc21`: the survival was inactive: 118%.

As for `COc1cccc(NC(=O)Cn2c(=O)n(CCC(=O)NCc3ccccc3OC)c(=O)c3ccccc32)c1`, the survival was inactive: 82%.

Take `COc1ccc(C)c2sc(N(Cc3cccnc3)C(=O)c3cccs3)nc12`: the survival is inactive: 63%.

Take `Cc1ccc(NC(=O)Cn2cc3c(n2)CCCC3)cc1Cl`: the survival is inactive: 97%.

Regarding `CCN1CCc2c(sc(-n3cccc3)c2C(C)NC(=O)Nc2ccc(C(=O)OC)cc2)C1` (centres undefined), the survival is inactive: 87%.

Consider `CCCCCCN1C(=O)c2ccc(Br)cc2C1=O`, for which the survival was inactive: 108%.

Consider `COc1ccc(-c2csc(-c3c(N)c(C(=O)c4ccc(OC)c(OC)c4)n4ccccc34)n2)cc1`, for which the survival was inactive: 100%.

Consider `O=C(Nc1cccc(F)c1)c1cnc2sc(N3CCCC3)nn2c1=O`, for which the survival is inactive: 74%.

On to `COc1ccc(CNS(=O)(=O)c2ccc(-c3cc(C(F)(F)F)on3)s2)cc1OC`, for which the survival was inactive: 133%.

`COc1ccc(CNC(=O)c2nn(C)c3c2CSc2ccccc2-3)cc1`: the survival was inactive: 88%.

Regarding `Cc1ccc(NC(=O)Cn2c(=O)n(Cc3ccccc3)c(=O)c3c(C)c(C(=O)N(C)C)sc32)c(C)c1`, the survival was inactive: 77%.

Take `COc1ccc(NC(=O)c2ccco2)cc1NC(=O)c1ccccc1[N+](=O)[O-]`: the survival is inactive: 64%.

For the compound `CCOC(=O)c1ccc(N2C(=O)c3n[nH]c(-c4ccco4)c3C2c2ccccc2OC)cc1` (centres undefined), the survival was inactive: 46%.

`COc1ccc(N(C)S(=O)(=O)c2ccc3c(c2)CCN3C(=O)CCC(=O)O)cc1`: the survival was inactive: 61%.

As for `CCc1cccc(C)c1Nc1nn2c(=O)c3ccccc3nc2s1`, the survival was inactive: 71%.

For `Cc1ccccc1C(=O)NC1CCN(Cc2nnnn2Cc2ccccc2)CC1`, the survival was inactive: 96%.

Consider `CCN(CC)S(=O)(=O)c1ccc(-n2cnnn2)c(C)c1`, for which the survival is inactive: 100%.

For `Cc1ccc(CNC(=O)c2ccc3c(c2)c(C)c(C)n3Cc2ccc(Cl)cc2)o1`, the survival was inactive: 84%.

Take `CC(C)Nc1nc(Cl)nc(NCCO)n1`: the survival was inactive: 109%.

Take `COc1cc(-c2cc(OC)c3c(C)oc(C)c3c(=O)c2)ccc1OC(=O)c1cccc(C)c1`: the survival was inactive: 78%.

With `Cc1nn(S(=O)(=O)c2ccc(F)cc2)c(C)c1S(=O)(=O)N1CCCCCC1`, the survival is inactive: 57%.

Consider `Cc1ccc(-c2noc(-c3ccc(N4CCCC4)c([N+](=O)[O-])c3)n2)cc1`, for which the survival was inactive: 113%.

Consider `Cc1ccc(C(=O)Nc2c(C(=O)Nc3ccc(C)c(C)c3)sc3nc(C)cc(C)c23)cc1`, for which the survival was inactive: 76%.

For `CCCc1cc(=O)[nH]c(SCc2nc(-c3ccc(OCC)cc3)no2)n1`, the survival is inactive: 65%.

For the compound `CCc1cccc(C)c1NC(=O)CSc1nc2ccncc2[nH]1`, the survival is inactive: 152%.

Regarding `COc1ccc(NC(=O)C2CCN(c3cc(C)nc4c(-c5ccc(Cl)cc5)c(C)nn34)CC2)cc1`, the survival was inactive: 90%.

On to `Cc1c(-c2ccccc2)c(=O)oc2c(CN3CCOCC3)c(O)ccc12`, for which the survival was inactive: 66%.

Turning to `CC1(C)CC(NS(=O)(=O)c2ccccc2)CC(C)(C)N1`, the survival is inactive: 97%.

Consider `Cc1ccc(C2C=C(c3ccccc3)Nc3nc(NS(C)(=O)=O)nn32)cc1` (centres undefined), for which the survival is inactive: 68%.

In the case of `Cc1cccc(NC(=O)c2cn(-c3ccccc3)nc2-c2ccccc2)c1C`, the survival is inactive: 102%.

As for `Cc1ccccc1CN1CCCN(CC(=O)Nc2ccc(F)cc2)S1(=O)=O`, the survival was inactive: 92%.

Consider `CCOC(=O)C1CCN(Cc2cn3c(-c4ccc(OC)cc4)nnc3s2)CC1`, for which the survival is inactive: 65%.

Regarding `COc1cccc(NS(=O)(=O)c2ccc3[nH]cc(C(=O)NC(C)c4ccccc4)c(=O)c3c2)c1` (centres undefined), the survival is inactive: 61%.

On to `Cc1ccc(OCCCCn2c(-c3ccc(Cl)cc3)nc3ccccc3c2=O)cc1`, for which the survival is inactive: 67%.

As to `CC(C)c1ccc(NC(=O)Cn2nnc(C(=O)NCc3ccc4c(c3)OCO4)c2N)cc1`, the survival is inactive: 78%.

As to `CCOC(=O)c1c(C)oc2nc(C)nc(NCCc3ccc(Cl)cc3)c12`, the survival is inactive: 78%.

For the compound `Cc1ccc(NC(=O)Cn2c(=O)n(Cc3ccc4c(c3)OCO4)c(=O)c3oc4ccccc4c32)cc1C`, the survival is inactive: 87%.

As for `Cn1c(=O)oc2cc(S(=O)(=O)NC(Cc3ccccc3)C(=O)Nc3ccc(F)c(Cl)c3)ccc21` (centres undefined), the survival was inactive: 93%.

`Cc1ccc(/C=C/C(=O)Nc2ccc3nc(N4CCC(C)CC4)cc(C)c3c2)cc1`: the survival is inactive: 139%.

With `CCOc1ccc(C(=O)Nc2ccc3nc(N(CC)CC)cc(C)c3c2)cc1`, the survival is inactive: 62%.

Regarding `Cc1cc(N2CCC(C(=O)Nc3ccc(F)cc3F)CC2)n2nc(C)c(-c3ccc(Cl)cc3)c2n1`, the survival was inactive: 87%.

For the compound `CCOc1cccc2sc(NC(=O)c3ccc(S(=O)(=O)N4CCCCC4C)cc3)nc12` (centres undefined), the survival is active: 10%.

Take `CCN(c1cccc(C)c1)S(=O)(=O)c1cc2c(cc1C)n(C)c(=O)c(=O)n2C`: the survival was inactive: 77%.

On to `COc1ccc(OCCSc2nc(C)cc(=O)[nH]2)cc1`, for which the survival is inactive: 107%.

With `Clc1ccccc1Cn1c(-c2cccs2)nc2ccccc21`, the survival is active: -3%.

In the case of `CCOc1ccc(NC(=O)c2sc(-n3nc(C)c(Cc4ccc(Cl)cc4)c3C)nc2C)cc1`, the survival is inactive: 86%.

On to `Cc1nnc(NC(=O)c2nc(SC(C)C)ncc2Cl)s1`, for which the survival is inactive: 82%.

As for `O=C(c1cc(-c2ccc(Cl)cc2)n[nH]1)N1CCN(S(=O)(=O)c2ccc(Br)s2)CC1`, the survival is inactive: 75%.

As to `CCOC(=O)c1c(C)[nH]c(C)c1S(=O)(=O)N1CCN(c2cc(Cl)ccc2C)CC1`, the survival was inactive: 120%.

For the compound `COc1ccc(-c2cc(C(F)(F)F)nc(SCCC(=O)N3CCN(C)CC3)n2)cc1`, the survival was inactive: 108%.

As for `CCOC(=O)c1c(-c2ccc(C)cc2)csc1NC(=O)c1cc(-c2ccc(OC)cc2)on1`, the survival was inactive: 80%.

Turning to `CCc1cccc(NC(=O)c2ccc3c(c2)N(Cc2cccc(Cl)c2)C(=O)c2ccccc2S3=O)c1` (centres undefined), the survival is inactive: 70%.

`Cc1cccc(N(C)C(=O)CCS(=O)(=O)c2ccc3c(c2)n(C)c(=O)c(=O)n3C)c1`: the survival was inactive: 87%.

For the compound `Cc1cc(Nc2cccc(C(=O)O)c2)n2nc(C)nc2n1`, the survival was inactive: 125%.

As to `COc1ccc(CCNS(=O)(=O)c2c(C)nc3sc(C)cn3c2=O)cc1OC`, the survival is inactive: 86%.

`CCCCOc1ccc(NC(=O)CS(=O)CC(=O)Nc2ccc(OC)cc2)cc1` (centres undefined): the survival is inactive: 105%.

For `CCCn1c2ccccc2c2cnn(CC(=O)NCCN(CC)CC)c(=O)c21`, the survival was inactive: 53%.

In the case of `COc1ccc(-c2nc3ccccc3o2)cc1NC(=O)c1cccnc1`, the survival was inactive: 57%.

As for `COc1ccc(CCNC(=O)c2ccc3c(c2)N=C(C)c2ccccc2S3)cc1OC`, the survival was inactive: 74%.
